Results reported in patent publication US7592316B2, “Peptides as NS3-serine protease inhibitors of hepatitis C virus” (Schering Corporation, priority 2000, dated 2009).
*1 amine or outer side, *2 acyl side, *3 side chain or, on linkers, in order; H or OH if unused. Where a SMILES comes first, the peptide text is derived from it. [ ]: non-standard residue; d: D form. The star is where a group is joined. ξ: configuration not given here. Phenylacetyl(2,3,4,5,6-F5) = O=C(Cc1c(F)c(F)c(F)c(F)c1F)*; ξ(3-Amino-2-oxopentanoyl) = CCC(N[*:1])C(=O)C(=O)[*:2]; Pro(4,4-S(CH2)3S) = O=C(O)[C@@H]1CC2(CN1)SCCCS2; ξLeu(ψCOCO) = CC(C)CC(N[*:1])C(=O)C(=O)[*:2]; X95 = O=C(C(=O)[*:2])[C@H](Cc1ccccc1)N[*:1]; ξPro(4,4-S(CH2)3S) = O=C(O)C1CC2(CN1)SCCCS2; Benzenesulfonyl = O=S(=O)(c1ccccc1)*; Benzoyl(2,6-F2) = O=C(c1c(F)cccc1F)*; Cyclohexanecarbonyl = O=C(C1CCCCC1)*; Cyclopentanecarbonyl = O=C(C1CCCC1)*; Isobutyloxycarbonyl = CC(C)COC(=O)*; Cyclohexylacetyl = O=C(CC1CCCCC1)*; Cyclopentylacetyl = O=C(CC1CCCC1)*; X4 = CCCCC(N[*:1])C(=O)C(=O)[*:2]; Hyp = O=C(O)[C@@H]1C[C@@H](O)CN1; X2 = CCCC(N[*:1])C(=O)C(=O)[*:2]; Aad = N[C@@H](CCCC(=O)O)C(=O)O; CH2CO2tBu = CC(C)(C)OC(=O)C*; Chg = N[CH](C(=O)O)C1CCCCC1; Phg = N[CH](C(=O)O)c1ccccc1; Tle = CC(C)(C)[C@H](N)C(=O)O; ξChg = NC(C(=O)O)C1CCCCC1; ξPhg = NC(C(=O)O)c1ccccc1; PhAc = O=C(Cc1ccccc1)*; X56 = O=C(OC1CCOCC1)*; ξNle = CCCCC(N)C(=O)O; Bn = c1ccc(C*)cc1; OtBu = CC(C)(C)O*; X37 = CC(C)N(C)*; tBu = CC(C)(C)*

biological target: HCV NS3/NS4A protease (strain 1a) (Hepatitis C virus genotype 1a, UniProt P27958); experiment: biochemical; settings: Compounds prepared by Solid Phase Synthesis, Table 3; read-out: Ki* CLASS

| Compound | Ki |
| --- | --- |
| CC(C)CC(NC(=O)[C@@H]1C[C@@H](OC(C)(C)C)CN1C(=O)[C@@H](NC(=O)Cc1c(F)c(F)c(F)c(F)c1F)C1CCCCC1)C(=O)C(=O)NCC(=O)N[C@H](C(N)=O)c1ccccc1 (stereo partly shown) ({Phenylacetyl(2,3,4,5,6-F5)}-[Chg][Hyp](tBu)[ξLeu(ψCOCO)]G[Phg]-NH2) | > 1000 nM |
| CCC(NC(=O)[C@@H]1C[C@@H](OC(C)(C)C)CN1C(=O)[C@@H](NC(=O)CC1CCCC1)C1CCCCC1)C(=O)C(=O)NCC(=O)N[C@H](C(N)=O)c1ccccc1 (stereo partly shown) (Cyclopentylacetyl-[Chg][Hyp](tBu)[ξ(3-Amino-2-oxopentanoyl)]G[Phg]-NH2) | 101 to 1000 nM |
| CCCC(NC(=O)[C@@H]1C[C@@H](OC(C)(C)C)CN1C(=O)[C@@H](NC(=O)c1c(F)cccc1F)C1CCCCC1)C(=O)C(=O)NCC(=O)NC(C(N)=O)c1cccc2c1OCO2 (stereo partly shown) | 101 to 1000 nM |
| CCCCC(NC(=O)CNC(=O)C(=O)C(CCC)NC(=O)[C@@H]1C[C@@H](OCC(=O)OC(C)(C)C)CN1C(=O)C(NC(=O)CC1CCCCC1)C1CCCCC1)C(N)=O (stereo partly shown) (Cyclohexylacetyl-[ξChg][Hyp](CH2CO2tBu)[X2]G[ξNle]-NH2) | > 1000 nM |
| CCCCC(NC(=O)[C@@H]1C[C@@H](OC(C)(C)C)CN1C(=O)[C@@H](NC(=O)OCC(C)C)C(C)(C)C)C(=O)C(=O)NCC(=O)N[C@H](C(N)=O)c1ccccc1 (stereo partly shown) (Isobutyloxycarbonyl-[Tle][Hyp](tBu)[X4]G[Phg]-NH2) | 101 to 1000 nM |
| CCCC(NC(=O)[C@@H]1C[C@@H](OCc2ccccc2)CN1C(=O)[C@H](CCCC(=O)O)NC(=O)Cc1ccccc1)C(=O)C(=O)NCC(=O)N[C@H](C(N)=O)c1ccccc1 (stereo partly shown) (PhAc-[Aad][Hyp](Bn)[X2]G[Phg]-NH2) | 101 to 1000 nM |
| CC(C)CC(NC(=O)[C@@H]1C[C@@H](OC(C)(C)C)CN1C(=O)[C@@H](NC(=O)c1c(F)cccc1F)C1CCCCC1)C(=O)C(=O)NCC(=O)N[C@H](C(N)=O)c1ccccc1 (stereo partly shown) ({Benzoyl(2,6-F2)}-[Chg][Hyp](tBu)[ξLeu(ψCOCO)]G[Phg]-NH2) | > 1000 nM |
| CCCC(NC(=O)[C@@H]1C[C@@H](OCc2ccccc2)CN1C(=O)[C@H](CCCC(=O)OC(C)(C)C)NC(=O)OCC(C)C)C(=O)C(=O)NCC(=O)N[C@H](C(N)=O)c1ccccc1 (stereo partly shown) (Isobutyloxycarbonyl-[Aad](OtBu)[Hyp](Bn)[X2]G[Phg]-NH2) | > 1000 nM |
| CCCCC(NC(=O)[C@@H]1C[C@@H](OC(C)(C)C)CN1C(=O)[C@@H](NS(=O)(=O)c1ccccc1)C(C)C)C(=O)C(=O)NCC(=O)N[C@H](C(N)=O)c1ccccc1 (stereo partly shown) (Benzenesulfonyl-V[Hyp](tBu)[X4]G[Phg]-NH2) | > 1000 nM |
| CCC(NC(=O)[C@@H]1C[C@@H](OC(C)(C)C)CN1C(=O)[C@@H](NC(=O)C1CCCC1)C1CCCCC1)C(=O)C(=O)NCC(=O)N[C@H](C(N)=O)c1ccccc1 (stereo partly shown) (Cyclopentanecarbonyl-[Chg][Hyp](tBu)[ξ(3-Amino-2-oxopentanoyl)]G[Phg]-NH2) | 101 to 1000 nM |
| CC(C)COC(=O)N[C@H](C(=O)N1C[C@H](OC(C)(C)C)C[C@H]1C(=O)N[C@@H](Cc1ccccc1)C(=O)C(=O)NCC(=O)N[C@H](C(N)=O)c1ccccc1)C1CCCCC1 (Isobutyloxycarbonyl-[Chg][Hyp](tBu)[X95]G[Phg]-NH2) | > 1000 nM |
| CCCCC(NC(=O)C(CCCC)NC(=O)CNC(=O)C(=O)C(CCC)NC(=O)[C@@H]1C[C@@H](OCc2ccccc2)CN1C(=O)C(NC(=O)C1CCCCC1)C1CCCCC1)C(N)=O (stereo partly shown) (Cyclohexanecarbonyl-[ξChg][Hyp](Bn)[X2]G[ξNle][ξNle]-NH2) | 101 to 1000 nM |

same assay, conditions: HCV protease continuous assay results, Table 1; read-out: Ki* Range

| Ki | Compound |
| --- | --- |
| > 1000 nM | CCCC(NC(=O)[C@@H]1CC2(CN1C(=O)C(NC(=O)OC(C)(C)C)C(C)(C)C)SCCCS2)C(=O)C(=O)NCC(=O)NC(CO)C(C)(C)C (stereo partly shown) [Example 245] |
| > 1000 nM | C=CCOC(=O)CNC(=O)C(=O)C(CCC)NC(=O)[C@@H]1CCCN1C(=O)C(NC(=O)OCC1c2ccccc2-c2ccccc21)C1c2ccccc2CCc2ccccc21 (stereo partly shown) [Example 57] |
| 101 to 1000 nM | CCC[C@H](NC(=O)[C@@H]1[C@@H]2[C@H](CN1C(=O)[C@@H](NC(=O)OC(C)(C)C)C(C)(C)C)C2(C)C)C(=O)C(N)=O [Example 289] |
| 101 to 1000 nM | CCCCC(NC(=O)[C@@H]1[C@@H]2[C@H](CN1C(=O)[C@@H](NC(=O)OC(C)(C)C)C(C)(C)C)C2(C)C)C(=O)C(=O)NOC (stereo partly shown) [Example 360] |
| > 1000 nM | CCCCC(NC(=O)[C@@H]1[C@@H]2[C@H](CN1C(=O)[C@@H](NC(=O)OC(C)(C)C)C(C)(C)C)C2(C)C)C(=O)C(=O)NC(C)(C)C (stereo partly shown) [Example 350] |

| Compound | Ki |
| --- | --- |
| CCCC(NC(=O)C1CC2(CN1C(=O)C(NC(=O)OCC(C)C)C1CCCCC1)SCCCS2)C(=O)C(=O)NCC(=O)NC(C(=O)N(C)C(C)C)c1ccccc1 (stereo not shown) [Example 150] (Isobutyloxycarbonyl-[Chg][ξPro(4,4-S(CH2)3S)][X2]G[Phg]-X37; configuration not given here) | 1 to 100 nM |
| CCCC(NC(=O)[C@@H]1CC2(CN1C(=O)[C@@H](NC(=O)OC1CCOCC1)C1CCCCC1)SCCCS2)C(=O)C(=O)NCC(=O)NC(C(N)=O)c1ccccc1 (stereo partly shown) [Example 128] (X56-[Chg][Pro(4,4-S(CH2)3S)][X2]G[ξPhg]-NH2) | 1 to 100 nM |

same assay, conditions: Table 4; HCV NS3/NS4A protease, spectrophotometric assay, 30° C., pH 6.5; read-out: Ki* Range

| Ki | Compound |
| --- | --- |
| 1 to 100 nM | CCCC(NC(=O)[C@@H]1C[C@@H](CNS(=O)(=O)c2ccccc2)CN1C(=O)[C@@H](NC(=O)OCC(C)C)C1CCCCC1)C(=O)C(=O)NCC(=O)N[C@H](C(N)=O)c1ccccc1 (stereo partly shown) |
| 101 to 1000 nM | CCCC(NC(=O)[C@@H]1C[C@@H](NS(=O)(=O)c2ccccc2)CN1C(=O)[C@@H](NC(=O)OCC(C)C)C(C)C)C(=O)C(=O)NCC(=O)N[C@H](C(N)=O)c1ccccc1 (stereo partly shown) |

same assay, conditions: Table 5; HCV NS3/NS4A protease, 30° C., pH 6.5; read-out: Ki* Range

| Ki | Compound |
| --- | --- |
| > 1000 nM | C=CCCNC(=O)C(=O)C(CCC=C)NC(=O)C(CCC(C)C)NC(=O)OCC1c2ccccc2-c2ccccc21 (stereo not shown) |
